Measurements from PubChem BioAssay AID1671194 (National Center for Advancing Translational Sciences (NCATS), 2021).
The whole screen tested about 140,000 compounds, of which about 240 (0.17%) were called active. The shares of active, inactive and inconclusive entries below differ from those in the screen. Calls follow the shape of the dose curve; as a rule, active = well fitted inhibition curve with a large enough effect; inconclusive = small, poorly fitted or top-dose-only effect; inactive = no such curve, though single readings can be large or run the other way. A potency beside an inconclusive call is a rough fit, not a confirmed value.

Experiment: Primary qHTS assay for inhibitors of alpha-synuclein gene (SNCA) expression; also: nearly all actives have a fitted effect of over 45% in size;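 as to activity change, negative = inhibition: plate controls were DMSO cells for no effect and cell-free wells for full effect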
Conditions: HEK-293 SNCA-luciferase knock-in, luminescence, 24 h; activity change, negative = inhibition: at 57.2 µM (top of the series) unless noted
Potency is read from the fitted curve at half-maximal effect; tags tell the direction and shape of the fitted curve.

Potency, inconclusive:
COCCN(CCOC)S(=O)(=O)c1ccc(C(=O)Nc2sc3c(c2C(=O)OC)CCN(C)C3)cc1 31.6 µM [inhibitor, partial curve, poor fit]
COc1ccc(-c2[nH]nc3ncc(C(=O)NCC(C)C)nc23)c(C)c1 35.5 µM [inhibitor, partial curve, poor fit]
CCCOc1ccc(C2c3c(-c4ccccc4O)n[nH]c3C(=O)N2CCc2ccccc2)cc1OCC (stereo not drawn) 39.8 µM [inhibitor, single point]
Cc1ccc(C)c(N2CCN(C(=O)Cn3cnc4onc(-c5ccc(F)cc5)c4c3=O)CC2)c1 3.16 µM [inhibitor, single point]
Cc1ccc(CN2CCOC[C@H]2c2ncc(-c3cccc(F)c3)[nH]2)cc1 3.55 µM [inhibitor, full curve, poor fit]
COc1ccccc1CNC(=O)C(=O)NCC(c1cccs1)S(=O)(=O)c1ccccc1 (stereo not drawn) 2.24 µM [inhibitor, partial curve, poor fit]
COc1ccc(-c2noc(CCC(=O)N(C)c3cc(Cl)ccc3OC)n2)cc1 39.8 µM [inhibitor, single point]
O=C(NCc1ccc(F)cc1)c1ccc(N2CC3CC(C2)[C@H]2CCCC(=O)N2C3)nc1 (stereo partly drawn) 39.8 µM [inhibitor, single point]
Cc1cc(C)cc(C(=O)N2CCN(c3cc(-c4ccc(Cl)cc4)[nH]n3)CC2)c1 22.4 µM [inhibitor, partial curve, poor fit]
CC(C)(C)c1ccc(S(=O)(=O)/C=C/C#N)cc1 39.8 µM [inhibitor, single point]
CCS(=O)(=O)N1CCCc2cc(C(=O)Nc3cccc(C(C)=O)c3)ccc21 39.8 µM [inhibitor, single point]
CCOc1ccc(CN2CCN(C/C=C/c3ccccc3OC)CC2CCO)cc1 (stereo not drawn) 7.08 µM [inhibitor, single point]
COc1ccc(Cl)cc1NC(=O)N1CCN(S(=O)(=O)c2ccc3c(ccn3C)c2)CC1 1.26 µM [inhibitor, full curve]
CCc1ccc(OCCSc2nc3ccccc3n2CC(=O)N2CCCCC2)cc1 2.24 µM [inhibitor, full curve]
O=C(c1ccc(F)cc1)N1CCCC(CN2CCCC2)CC1 (stereo not drawn) 8.91 µM [inhibitor, single point]
CC(C)C[C@@H]1N[C@H](C(=O)NCC2CC2)Cc2c[nH]c3cccc1c23 56.2 µM [inhibitor, single point]
COc1ccccc1C(=O)N1CCN(c2nccc(Nc3ccccc3Cl)n2)CC1 6.31 µM [inhibitor, single point]
CC(C)(C)OC(=O)N1CC(N2CCCCC2)C1 56.2 µM [inhibitor, single point]
COCCNC(=O)[C@@H]1C[C@H](Oc2ccccc2)CN1C(=O)Cc1cccc(F)c1 7.94 µM [inhibitor, single point]
C[C@@]1(O)CCN(Cc2cnc(NCC(=O)O)nc2)C[C@@H]1O 8.91 µM [inhibitor, partial curve, poor fit]
CC(=O)Nc1ccc(NC(=O)c2nc(S(=O)(=O)Cc3ccc(F)cc3)ncc2Cl)cc1 10 µM [inhibitor, partial curve, poor fit]
CNC(=O)CCn1ncc2cc(OCc3ccccc3-c3ccccc3Cl)ccc21 31.6 µM [inhibitor, single point]
CCc1nn(C(CC)C(=O)NCc2ccc(OC)c(OC)c2)c(=O)c2cc3oc(C)cc3n12 (stereo not drawn) 0.447 µM [inhibitor, single point]
COc1cc(/C=C(\C#N)c2nc3ccc(C)cc3[nH]2)ccc1OCc1ccc(C)cc1 0.178 µM [inhibitor, full curve, poor fit]
O=C1CCN(C(=O)Cc2ccccc2)CCCC(CO)CCN1 (stereo not drawn) 39.8 µM [inhibitor, single point]
O=C(NC1CC1)c1cccn2nccc12 7.08 µM [inhibitor, full curve]
COCCn1c(=O)n([C@H]2CCCN(C(=O)COc3ccccc3)C2)c2ncccc21 39.8 µM [inhibitor, single point]
CCOc1ccccc1CNC(=O)c1cc2n(n1)CC(c1ccc(Cl)cc1)OC2 (stereo not drawn) 28.2 µM [inhibitor, partial curve, poor fit]
CCc1ccc(C(=O)c2cn(CC(=O)Nc3ccc4c(c3)OCO4)c3ccc(CC)cc3c2=O)cc1 7.08 µM [inhibitor, single point]
O=C(Cn1nccn1)NC1CC(c2cc(N3CCC(O)C3)ncn2)C1 (stereo not drawn) 0.891 µM [inhibitor, partial curve, poor fit]
COc1ccc(CN2C(=Nc3ccc(Cl)cc3)S[C@H]3[C@@H]2[C@@H](O)[C@H](O)C[C@@H]3C(N)=O)cc1 3.16 µM [inhibitor, partial curve, poor fit]
CS(=O)(=O)N1C[C@H]2CCN(Cc3ccc(F)cc3Cl)C[C@H]21 35.5 µM [inhibitor, single point]
CSc1cccc(NC(=O)N2CCC(c3cc(-c4cccc(C)c4)n[nH]3)CC2)c1 25.1 µM [inhibitor, single point]
CCc1ccc(C(=O)c2cn(CC(=O)Nc3ccc(Cl)cc3)c3cc4c(cc3c2=O)OCO4)cc1 1 µM [inhibitor, partial curve, poor fit]
CC(=O)N1CCCc2cc(S(=O)(=O)N3CCCC(C(=O)N4CCN(c5cccc(Cl)c5)CC4)C3)ccc21 (stereo not drawn) 39.8 µM [inhibitor, single point]
COC(=O)[C@@H]1Cc2ncn(C)c2CN1C(=O)CC(C)(C)CC(=O)O 28.2 µM [inhibitor, single point]
Cc1noc([C@@H]2CN(C(=O)c3ccc(F)c(Cl)c3)C[C@H]2CO)n1 39.8 µM [inhibitor, single point]
O=C1Nc2ccccc2CC12CCN(CC1CCCCC1)C2 (stereo not drawn) 5.01 µM [inhibitor, full curve, poor fit]
COCC1CN(C)CC12CCN(C(=O)c1cnco1)CC2 (stereo not drawn) 39.8 µM [inhibitor, partial curve, poor fit]
CCCC1C=CCN1C(=O)c1cc(-c2ccncc2)nc2ccccc12 (stereo not drawn) 39.8 µM [inhibitor, single point]
COC(=O)Cn1c(=O)c2cccn2c2ccc(F)cc21 39.8 µM [inhibitor, single point]
CN(C)c1ccc(CN2CCC3(C2)C(=NC2CCCCC2)NC(=O)N3c2cc(F)cc(F)c2)cc1 (stereo not drawn) 15.8 µM [inhibitor, partial curve, poor fit]
CCCCCn1c(NCc2ccc(OC)cc2)nc2ccccc21 35.5 µM [inhibitor, single point]
COc1cccc(NC(=O)Cn2c(-c3ccccc3)nc(C)c(CCO)c2=O)c1 39.8 µM [inhibitor, single point]
C[S+](=O)([O-])N1CC2ON=C(C(=O)NCc3cccnc3)C2C1 (stereo not drawn) 2.82 µM [inhibitor, full curve, poor fit]

Potency, active:
CNC(=O)c1ccc(Nc2ncc(C(F)(F)F)c(NCc3nccnc3N(C)S(C)(=O)=O)n2)cc1 21.5 µM
Cc1ccc(NC(=O)C2(c3ccc4c(c3)OC(F)(F)O4)CC2)nc1-c1cccc(C(=O)O)c1 0.0764 µM

Activity change, negative = inhibition, inactive:
O=C(c1ccc2c(c1)OCO2)N1CCn2c(nnc2-c2cccnc2)C1 -12%
CCOc1ccccc1NC(=O)NCCn1c(C)cnc1C1CC1 13.9%
COc1ccc(C(=O)Nc2ccc(-c3noc([C@@H]4CCCN4Cc4ccc(OC(F)(F)F)cc4)n3)cn2)cc1 -12.2%
COCc1cc(=O)n(CC(=O)Nc2cccc(C(C)=O)c2)c(N2CCOCC2)n1 -21.2%
O=[S+]([O-])(Nc1nncs1)c1ccc2c(c1)OCCN(Cc1cccs1)C2 11.8% [at 87.6 µM]
O=C1N(C2CCN(S(=O)(=O)c3cccnc3)CC2)C(c2ccccc2)C12CCCC2 (stereo not drawn) -8.5%
Cc1cn2cc(C(=O)N3CCC(Oc4cccnc4)CC3)ccc2n1 -7.95%
Cc1ccc(S(=O)(=O)c2nnn3c2nc(NC2CCCC2)c2ccccc23)cc1 4.26%
COCCNC(=O)[C@@H]1Cc2cn(Cc3ccncc3)c3cccc(c23)[C@H](CC(C)C)N1 -37.5% [at 87.6 µM]
CCCCNC(=O)c1cccc(CN2C(=O)CC(c3ccccc3C)C(C(=O)OCC)=C2C)c1 (stereo not drawn) -26.6%
Cc1cc2c(-c3cccc(CO)c3)nc(-c3c(C)noc3C)cc2[nH]1 69.5% [at 87.6 µM]
CS(=O)(=O)N1CCc2cc(C(=O)N3CCN(c4cccc(Cl)c4)CC3)ccc21 2.66%
O=C(Nc1ccc2c(c1)CN(Cc1ccc3c(c1)OCO3)C(=O)CO2)c1ccc(F)cc1 -0.65%
COCCCNc1nc(NCc2ccccc2OC)c2cnn(C)c2n1 -16%
CC(C)C(=O)N1Cc2ccccc2CC2(CCCCN2Cc2ccccn2)C1 (stereo not drawn) -11.7%
Cc1cccc(NC(=O)c2ccc(CN3C(=O)NC4(CCOCC4)C3=O)cc2)c1 -5.9%
